The campaign covered roughly 48,000 compounds. About 450 (0.94%) were called active. Not shown: some 19% with an inconclusive outcome. Calls follow the shape of the dose curve; as a rule, active = well fitted inhibition curve with a large enough effect; inconclusive = small, poorly fitted or top-dose-only effect; inactive = no such curve, though single readings can be large or run the other way. This is one part of the list.
Assay: Primary qHTS for Identification of Small Molecule Inhibitors of Huntingtin Promoter Activity; also: nearly all actives have a fitted effect of over 50% in size
Settings: HEK293 HTT promoter firefly luciferase reporter (activity 0% = vehicle and -100% = no light), 24 h; series mostly up to 57.5 µM; activity change, negative = inhibition: at the top concentration
Outline: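 HEK293 Fluc reporter, 2,500 cells/well, 24 h pre-culture; cpds up to 57.5 uM final, 24 h 37 degrees C; Dual-Glo, 10 min RT; normalized vehicle = 0%, zero RLU = -100%.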

Activity change, negative = inhibition, inactive:
CN[C@@H]1[C@@H](O)[C@@H](O[C@@H]2[C@H](O)[C@H](O[C@H]3OC(CN)=CC[C@H]3N)[C@@H](N)C[C@H]2N)OCC1(C)O (stereo partly specified) 0.179%, CCc1ccc(S(=O)(=O)c2nnn3c2nc(N2CCC(C(N)=O)CC2)c2cc(Cl)ccc23)cc1 -10.5%, Cc1c(C(=O)Nc2cccc(C#N)c2)sc2nc3n(c(=O)c12)CCCCC3 49.8%, CC(C)CC(=O)NCC1(N(C)C)CCCCC1 -9.45%, COc1ccc(CNC(=O)C(C)N2Cc3ccccc3C2=O)cc1 (stereo unspecified) -11.5%, Cc1nc(-c2ccccc2)sc1CCNC(=O)C(=O)Nc1ccc2c(c1)OCCO2 3.76%, Cc1ccc(CNC(=O)CCCN2C(=O)c3cccnc3Oc3ccc(Cl)cc32)cc1 -19.7%, COc1cc(OC)c(NC(=O)N2CCc3c(sc4c3CCCC4)C2c2ccccc2)cc1Cl (stereo unspecified) -28.6%, O=C(Nc1nnc(S(=O)(=O)N2CCCCCC2)s1)c1ccccc1Cl -17.7%, CCOc1ccc(NC(=O)c2cc3c(s2)-c2ccccc2OC3)cc1 -21.8%, Cc1cccc(NC(=O)C(Cc2ccccc2)n2cccc2)c1C (stereo unspecified) -20.8%, COc1ccccc1Cc1nc2ccccc2nc1SCC(=O)N1CCc2ccccc21 -4.46%, COc1cc(N)c(Cl)cc1C(=O)NC1CCN(Cc2ccccc2)CC1 0.934%, COc1ccccc1N1CCN(c2ccc(-c3nc(-c4ccccc4C)no3)cc2[N+](=O)[O-])CC1 27.1%, CCOC(=O)c1ccc(NC(=O)CSc2nccn2-c2ccc(OCC)cc2)cc1 -33.2%, FC(F)(F)c1cccc(-c2nnn3c2nc(NC2CCCCC2)c2ccccc23)c1 -16.2%, Cc1cccc(N2CCN(C(=O)Cn3cnc4sc(C)c(S(=O)(=O)N5CCN(c6ncccn6)CC5)c4c3=O)CC2C)c1 (stereo unspecified) -9.07%, CCC(C)NC(=O)C1CCN(C(=O)c2ccc(-n3ccc4ccccc43)s2)CC1 (stereo unspecified) -0.598%, COc1ccccc1CCNC(=O)Cc1c(C)c2c(cc(C)c3c(C)c(C)oc32)oc1=O -0.192%, S=P(N1CC1)(N1CC1)N1CC1, COc1ccc(NC(=O)C(C)n2nnc3sc(-c4ccccc4)cc3c2=O)cc1Cl (stereo unspecified) 8.74%, CCOc1ccc(CCNC(=O)c2cc(=O)[nH]c3ccc(S(=O)(=O)N4CCCCC4)cc23)cc1OCC -8.53%, CCOc1ccccc1CNC(=O)C1CCN(S(=O)(=O)c2c(C)noc2/C=C/c2ccc(C)cc2)CC1 -22.7%, COc1cccc(NC(=O)C(=O)NCCc2csc(-c3ccc(C(F)(F)F)cc3)n2)c1 59.9%, Cc1ccccc1OCC(=O)Nc1ccc(OCc2cc(=O)n3ccsc3n2)cc1 -8.34%, CCOC(=O)c1cccc(NC(=O)N2CCC(CN3CCc4ccccc4C3)CC2)c1 -29.2%, O=C(Cc1ccc(F)cc1)NCc1nc2cccnc2n1Cc1ccc(F)cc1 6.87%, CCOc1ccc(S(=O)(=O)c2c[nH]c3ccccc3c2=O)cc1 -25.4%, COc1ccc(CCNC(=O)C2CCN(c3ncnc4c3nc3n4CCCCC3)CC2)c(OC)c1 -16.3%, NS(=O)(=O)c1ccc(CCNC(=O)c2ccc3nc(Cc4ccccc4)oc3c2)cc1 0%, CCCc1cc(=O)oc2cc(C)c3c(-c4cccc(OC)c4)coc3c12 4.88%, CC1CCCN(Cc2nc3c(c(=O)n(C)c(=O)n3C)n2Cc2ccc(Cl)cc2Cl)C1 (stereo unspecified) -8.48%, CCOC(=O)c1cccc(NC(=O)N2CC(CC)Sc3ccccc32)c1 (stereo unspecified) -0.616%, COc1cccc(-c2nc(SCC(=O)NCC3CCCO3)c(-c3ccc(F)cc3)[nH]2)c1 (stereo unspecified) -19.7%, CN(C)CCNC(=O)CN1C(=O)CCn2nc(-c3cn(C)c4ccccc34)cc21 -1.93%, CCc1ccc(NC(=O)Cn2ncc3c(C)n(Cc4cccc(Cl)c4)c(C)c3c2=O)cc1 3.37%, O=C(Nc1cccc(C(=O)N2CCN(c3ccccc3F)CC2)c1)c1nsc2ccccc12 -6.57%, COC(=O)c1cc2sccc2n1Cc1nc(-c2cccc(Br)c2)oc1C -14.7%, CCC1CCCCN1C(=O)CSc1n[nH]c(-c2ccccc2Cl)n1 (stereo unspecified) 22.5%, CCN(c1ccc(OC)cc1)S(=O)(=O)c1nnc(NC(=O)c2ccccc2C)s1 -31.1%, CCOc1ccc(NC(=O)Cn2c(=O)n(CC3CCCO3)c(=O)c3ccccc32)cc1 (stereo unspecified) -11.1%, CCc1ccc(-n2nc(C)c3c(C)cc(=O)n(CC(=O)NCc4ccc(C)cc4)c32)cc1 -8.52%, CCc1ccc(NC(=O)CSc2nc(C)cc(COC)c2C#N)cc1 -10.1%, CC(C)CCNc1nc2c(S(=O)(=O)c3ccc(Br)cc3)nnn2c2ccsc12 0.589%, CCc1cc2c(cc3c(=O)n(CC(=O)N4CCN(c5cc(Cl)ccc5C)CC4)nc(CC)n32)s1 0.525%, CCCCCCc1cc2cc(-c3nnc(-c4ccc(C)cc4)o3)c(=O)oc2cc1O -13.8%, C=Cc1ccc(Cn2c(=O)n(-c3ccc(C)cc3)c(=O)c3c2c2cc(OC)ccc2n3C)cc1 -5.7%, CCOc1ccc2nc(N3CCCC(C(=O)NCc4ccccc4Cl)C3)sc2c1 (stereo unspecified) 32.2%, COc1ccc(CCNC(=O)CCCCCn2c(=O)[nH]c3cc(OC)c(OC)cc3c2=O)cc1OC 7.01%, CC(=O)Nc1nnc(SCc2cc(=O)c3cccc(C)c3[nH]2)s1 -1.84%, CC1=C(C(=O)Nc2ccc(C)cc2C)C(c2cccn2C)n2ncnc2N1 (stereo unspecified) -5.61%, CC(C)C(=O)Nc1cccc(NC2=NS(=O)(=O)c3ccccc32)c1 4.66%, NC(N)=NCCN1CCCCCCC1 8.48% [at 0.739 µM], CCOC(=O)c1cccc(NC(c2nnc(-c3ccccc3)o2)c2ccccc2F)c1 (stereo unspecified) -14.9%, Cc1ccc(C)c(N2CCN(c3nc4ccccc4c4nc(-c5cccnc5)nn34)CC2)c1 -5.76%, Cc1ccc2c(c1)c(=O)c(C(=O)c1ccncc1)cn2CC(=O)Nc1ccccc1Cl -25.4%, Cc1ccc(CNC(=O)C2CCCN(c3nnc(-n4c(C)ccc4C)s3)C2)cc1 (stereo unspecified) -17.1%, COc1ccc(NC(=O)CSc2nc(O)c(C/C=C/c3ccccc3)c(=O)[nH]2)cc1 -17.3%, CCSc1nc(-c2ccc(Cl)cc2)nc2c1Cc1c(CO)cnc(C)c1O2 -14.5%, COc1ccc(-c2cc(C(F)(F)F)n3nc(C(=O)Nc4cccc(C(F)(F)F)c4)c(Br)c3n2)cc1 -2.12%, CCOC(=O)c1ccc(NC(=O)CCn2cnnn2)cc1 6.69%

Source: PubChem BioAssay AID1508623 (National Center for Advancing Translational Sciences (NCATS), 2021)
